Assay results as given in the supplement of paper PMC7826260.
The other results are listed elsewhere or left out. Cleavage of a single-stranded DNA pool by Rep nickase domains was read by sequencing at 3 µM enzyme and 37 °C for 1 h; the strands have 90 letters, of which the middle is given. A value is the log2 ratio of uncut reads to the pool without enzyme; more negative means more cut, near 0 not cut, and no call is made. Because reads are shares of a total, they shift together; where an enzyme cuts many sequences, the uncut ones exceed 0.

These sequences were tested on T1, Rep nickase domain of tomato golden mosaic virus (assay: uncleaved DNA left, log2 of reads against the no-enzyme library (log2 ratio); higher = less cleavage (more negative = more Rep cleavage of the k-mer); sequences stand for … in CTCGTCCG…ACCGGAGA).
T1 sequence (residues 1-124, tag not shown): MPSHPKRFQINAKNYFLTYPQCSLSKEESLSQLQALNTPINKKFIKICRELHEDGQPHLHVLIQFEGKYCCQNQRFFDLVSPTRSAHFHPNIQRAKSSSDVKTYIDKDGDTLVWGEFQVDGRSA
Protocol: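 A pool of 90-nt single-stranded DNAs with seven random bases just before the constant AC of the nick site (name = the seven bases) was cut by 3 µM recombinant His6-SUMO-tagged Rep nickase domain (300 nM DNA, 50 mM HEPES pH 8.0, 50 mM NaCl, 1 mM MnCl2, 1 h, 37 °C, three replicates). Uncut DNA was amplified and sequenced.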

| Sequence | uncleaved DNA left (log2) |
| --- | --- |
| CTCCCAC | -0.0362 |
| GTTTAAA | 0.255 |
| AGCGGGT | 0.0593 |
| TCTGGGC | -0.0919 |
| TTTCACC | -0.137 |
| AAGAACC | 0.0577 |
| AGTTTCT | 0.00336 |
| TATAAGC | 0.136 |
| GCCGGTA | 0.00196 |
| TAAGTAC | 0.0193 |
| GTAGTAG | 0.101 |
| TAACAAT | -0.284 |
| TAGATTC | -0.00819 |
| ACGCTGC | 0.154 |
| CGATTTA | -0.11 |
| TGGCTAA | -0.016 |
| GGCCCCA | -0.0317 |
| GGGAGAG | 0.0601 |
| CGTCACG | -0.063 |
| ACTTATA | 0.0757 |

| Sequence | uncleaved DNA left (log2) |
| --- | --- |
| GCTGTGG | 0.112 |
| GTCATAT | -0.00517 |
| TGCCGCA | -0.138 |
| CGTTGAA | -0.132 |
| CTCCTAG | -0.00584 |
| TCATCAC | -0.0434 |
| GGTGATT | -0.0529 |
| GTCGCAG | 0.15 |
| AGCAAAA | 0.0576 |
| CGGAGCA | 0.113 |
| CTGATTG | -0.12 |
| TGAAATA | 0.084 |
| GTAGATC | 0.248 |
| GTCTGAG | 0.0458 |
| TACGCAT | -0.0378 |
| CTGACAT | 0.0782 |
| TATTGAC | -0.0344 |
| TGACTTG | -0.165 |
| GTCAATA | 0.12 |
| TGACCCC | 0.0522 |
